Reference: PubChem BioAssay AID504339 (National Center for Advancing Translational Sciences (NCATS), 2011)
“And” between values parts separate entries of the source, which are not always exact repeats. Equal entries are not always repeated. Out of some 390,000 compounds screened, about 17,000 (4.4%) were called active. The inconclusive results got no clear call from the source; some entries with a clear call stand among them for comparison. Calls follow the shape of the dose curve; as a rule, active = well fitted inhibition curve with a large enough effect; inconclusive = small, poorly fitted or top-dose-only effect; inactive = no such curve, though single readings can be large or run the other way. Potencies beside an inconclusive call are fits to weak or partial responses and may not hold up. Where a structure was tested more than once in an assay, its records may differ in their call.

Each compound was assayed against Lysine-specific demethylase 4A (Homo sapiens) (UniProt O75164) (assay: qHTS Assay for Inhibitors of JMJD2A-Tudor Domain). Conditions: AlphaScreen JMJD2A-Tudor / H3K4me3 peptide binding; activity change, negative = inhibition: at 114 µM (top of the series).
Chain of UniProt O75164 (O75164 whole entry, looked up, the tested form may be a part): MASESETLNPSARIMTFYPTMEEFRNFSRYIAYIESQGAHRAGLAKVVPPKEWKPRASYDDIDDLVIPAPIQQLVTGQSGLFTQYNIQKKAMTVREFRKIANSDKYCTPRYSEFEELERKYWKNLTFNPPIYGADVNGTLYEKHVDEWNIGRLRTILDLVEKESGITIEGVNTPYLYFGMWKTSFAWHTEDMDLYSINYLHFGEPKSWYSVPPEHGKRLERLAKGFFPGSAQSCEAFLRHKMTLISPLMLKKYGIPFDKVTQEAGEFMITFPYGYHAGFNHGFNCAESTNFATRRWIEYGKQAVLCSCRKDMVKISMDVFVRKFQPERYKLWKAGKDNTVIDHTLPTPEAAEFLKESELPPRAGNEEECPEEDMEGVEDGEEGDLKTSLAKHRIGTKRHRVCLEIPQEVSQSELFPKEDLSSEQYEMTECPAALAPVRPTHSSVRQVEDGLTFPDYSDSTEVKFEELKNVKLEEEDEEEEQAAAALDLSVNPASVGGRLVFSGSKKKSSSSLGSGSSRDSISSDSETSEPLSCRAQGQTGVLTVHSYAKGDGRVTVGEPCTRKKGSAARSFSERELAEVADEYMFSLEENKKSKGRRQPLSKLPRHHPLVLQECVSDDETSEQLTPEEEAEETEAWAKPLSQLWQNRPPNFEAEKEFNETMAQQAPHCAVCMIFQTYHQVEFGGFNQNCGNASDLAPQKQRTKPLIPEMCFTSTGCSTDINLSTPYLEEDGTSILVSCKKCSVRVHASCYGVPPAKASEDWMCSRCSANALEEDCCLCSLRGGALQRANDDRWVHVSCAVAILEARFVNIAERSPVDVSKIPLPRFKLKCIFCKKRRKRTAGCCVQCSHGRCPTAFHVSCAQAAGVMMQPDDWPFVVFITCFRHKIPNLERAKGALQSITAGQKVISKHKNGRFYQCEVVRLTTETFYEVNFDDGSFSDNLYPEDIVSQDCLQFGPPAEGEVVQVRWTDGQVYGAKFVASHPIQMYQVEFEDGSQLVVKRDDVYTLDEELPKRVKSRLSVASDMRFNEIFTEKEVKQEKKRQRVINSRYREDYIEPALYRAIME
% is scaled to controls: 0 for no effect and ±100 for the full control effect; potency is read from the fitted curve at half-maximal effect; tags tell the direction and shape of the fitted curve.
Also: nearly all actives have a fitted effect of over 50% in size.

Potency, inconclusive:
CC(Sc1ccc(S(=O)(=O)N2CCN(C)CC2)cn1)C(=O)Nc1cccc(Cl)c1Cl (configuration not stated) 56.2 µM [inhibitor, partial curve, poor fit]
O=C(NCCc1nc2ccccc2n1Cc1ccc(Cl)cc1Cl)c1ccco1 39.8 µM [inhibitor, partial curve]
Cc1nn(-c2ccc(N3CCCC3)nn2)c(C)c1CCC(=O)Nc1ccc(F)c(Cl)c1 15.8 µM [inhibitor, full curve, poor fit]
C/C(=N/NC(=O)CSc1nc2ccccc2s1)c1ccncc1 79.4 µM [inhibitor, single point]
COc1cc(/C=C2/SC(=O)NC2=O)ccc1OCc1ccccc1 89.1 µM [inhibitor, partial curve, poor fit]
CC(C)C[C@@H](CN1CCCC1CN1C(=S)NC[C@@H]1Cc1ccc(O)cc1)N1C[C@H](Cc2ccccc2)N(CC2CCCCC2)C1=S (some centres not stated) 20 µM [inhibitor, partial curve]
N#Cc1nc(-c2ccccc2F)oc1N1CCCCC1 63.1 µM [inhibitor, partial curve, poor fit]
CN1CCN(c2ccc(S(=O)(=O)N3CCCCC3)cc2NC(=O)COc2cccc(Cl)c2)CC1 35.5 µM [inhibitor, full curve]
S=C(NNC(=S)NC1CC2CCC1C2)NC1CC2C=CC1C2 (configuration not stated) 3.98 µM [inhibitor, full curve, poor fit]
O=C(CN1CCN(c2ccccc2O)CC1)NC(c1ccccc1)c1ccccc1 25.1 µM [inhibitor, full curve, poor fit]
CCOC(=O)/C(=N/Nc1ccc(Br)cc1)N1CC(C)OC(C)C1 (configuration not stated) 39.8 µM [inhibitor, partial curve]
COc1ccc(OC)c(CN2CCN(S(=O)(=O)c3ccc(NC(C)=O)cc3)CC2)c1 31.6 µM [inhibitor, full curve, poor fit]
CSc1nnc(C)c(/C=C/NOCc2ccc(Cl)cc2)n1 50.1 µM [inhibitor, partial curve]
Oc1ccc(N=Nc2cccc(C(F)(F)F)c2)cc1C=Nc1ccc(N2CCOCC2)cc1 3.16 µM [inhibitor, full curve]
CCc1ccc(N2C(=O)c3sc4nnc(-c5ccccc5)c(=O)n4c3C2=O)cc1 56.2 µM [inhibitor, partial curve]
O=[N+]([O-])c1ccc(N2CCN(Cc3ccccc3)CC2)c(S(=O)(=O)N2CCOCC2)c1 63.1 µM [inhibitor, single point]
O=[N+]([O-])c1cc2c(cc1/C=N/Nc1nc(N3CCCC3)nc(N3CCCC3)n1)OCO2 17.8 µM [inhibitor, full curve, poor fit]
C=CCn1c(C)cc(C(=O)COC(=O)CCc2cc(OC)c(OC)c(OC)c2)c1C 50.1 µM [inhibitor, partial curve]
O=c1c(Cl)c(NCc2ccccc2Cl)cnn1C12CC3CC(CC(C3)C1)C2 100 µM [inhibitor, partial curve]
CC(NC(=S)Nc1ccc(Cl)cc1Cl)C(c1cccs1)N1CCCC1 (configuration not stated) 70.8 µM [inhibitor, single point]
COc1ccc(-c2[nH]c(-c3cccc(OC)c3)nc2SCC(=O)NC2CCCC2)cc1 50.1 µM [inhibitor, partial curve] and 63.1 µM [inhibitor, partial curve, poor fit]
CN(CC(=O)NCc1ccccc1)S(=O)(=O)c1ccc2[nH]c3c(c2c1)CCCC3 35.5 µM [inhibitor, full curve]
NC(=O)c1c(NC(NC(=O)c2ccco2)C(=O)c2ccc(Cl)cc2)sc2c1CCCC2 (configuration not stated) 35.5 µM [inhibitor, partial curve]
N#C/C(=C\C=C\c1ccccc1)C(=O)NCc1cccnc1 17.8 µM [inhibitor, full curve, poor fit]
N#CC1=C(N)OC2=C(C(=O)CC(c3ccco3)C2)C1c1ccc(OCc2c(F)cccc2Cl)cc1 (configuration not stated) 50.1 µM [inhibitor, partial curve]
CCCCC(Sc1ccc2nnc(-c3ccccn3)n2n1)C(=O)O (configuration not stated) 25.1 µM [inhibitor, single point]
Cc1ccc2occ(/C=N/NC(=O)c3ccc(Cl)cc3)c(=O)c2c1 100 µM [inhibitor, single point]
CCOC(=O)c1cc(-c2ccccc2)n(-c2cccc(C(=O)Nc3cc(OC)cc(OC)c3)c2)c1C 39.8 µM [inhibitor, partial curve]
N#CC(C#N)=C1C=C2C=C(N3CCCCC3)CCC2CC1 (configuration not stated) 28.2 µM [inhibitor, full curve]
Cc1ccc(C)c(N2CCN(C(=O)CCCn3c(=O)c4cccn4c4cccnc43)CC2)c1 39.8 µM [inhibitor, full curve, poor fit]
CC(=O)OC(Cn1nc(C)cc1C)c1ccccc1 (configuration not stated) 70.8 µM [inhibitor, partial curve]
CCn1c2ccccc2c2cc(NC(=O)CN3CCCC3)ccc21 63.1 µM [inhibitor, partial curve, poor fit]
COc1ccc(-c2[nH]ncc2CN(C)C(C)c2cccs2)c(F)c1 (configuration not stated) 39.8 µM [inhibitor, single point]
CCOc1cc(NC(=S)NCC2CCCO2)c(OCC)cc1NC(=O)c1ccccc1C (configuration not stated) 100 µM [inhibitor, partial curve, poor fit]
COc1cccc(/C=N/NC(=O)c2cc3c(OC)cccc3[nH]2)c1OC 44.7 µM [inhibitor, single point]
O=C(CSc1nc(=O)n2cc(Cl)ccc2n1)Nc1ccc2c(c1)OCO2 79.4 µM [inhibitor, partial curve]
COc1ccc(OC)c(NS(=O)(=O)c2cccc3cccnc23)c1 6.31 µM [inhibitor, partial curve, poor fit]
CCCOc1nc2c(c(=O)n(C)c(=O)n2C)n1C 31.6 µM [inhibitor, partial curve]
CC(C)(C)NC(=O)C(c1ccncc1)N(Cc1ccc(F)cc1)C(=O)c1ccc(-c2ccccc2)[nH]1 (configuration not stated) 50.1 µM [inhibitor, partial curve]

Potency, active:
CC(C)Sc1ncc(Cl)c(C(=O)N(Cc2ccc(N(C)C)cc2)C2CCS(=O)(=O)C2)n1 (configuration not stated) 56.2 µM
CC1CCC(N2CCN(S(=O)(=O)Cc3ccccc3)CC2)CC1 (configuration not stated) 22.4 µM
Cc1csc(N2CCN(c3cc4c(cc3Cl)nc(-c3ccncc3)n4CCCN3CCCC3)CC2)n1 56.2 µM
CCN(CC)c1ccc(/C=N/N2CCN(Cc3ccccc3Cl)CC2)cc1 17.8 µM
CC1(c2ccccc2)CC(C)(C)N2C(=O)/C(=C3\SC(=S)NC3=O)c3cccc1c32 (configuration not stated) 28.2 µM
CCOC(=O)C1CCN(Cc2ccccc2C(F)(F)F)CC1 2.82 µM
COc1cccc(OCCCCN2CCCCC2)c1 8.91 µM
Oc1ccc(N=Nc2ccc3ccccc3c2)cc1 44.7 µM
N#Cc1ccc(OCC(=O)NNC(=S)NC(=O)C2CC2)cc1 28.2 µM
C=CCOc1c(CNc2ccc3[nH]c(=O)[nH]c3c2)cccc1OC 44.7 µM
O=C(Nc1cccnc1)c1cc(-c2cccc(Cl)c2)on1 25.1 µM

Activity change, negative = inhibition, inactive:
CC(C)OC(=O)CN1CCN(S(=O)(=O)c2cc(Cl)ccc2Cl)CC1 -18.6%
CCOC(=O)c1c(NC(=O)c2ccc(Br)o2)sc(C)c1CC 76.8%
CC1=C(CC(=O)NCC(=O)NCC(=O)O)c2cc(F)ccc2/C1=C/c1ccc(S(C)=O)cc1 (configuration not stated) -14.1%
Cc1ccc(-n2c(=O)c3c(cnn3C)n(Cc3ccccc3F)c2=O)cc1 -3.75%
Cc1ccc(Nc2nc(N)c([N+](=O)[O-])c(NCc3ccccc3)n2)cc1 -13.5%
CCN(CC)S(=O)(=O)c1ccc2c(c1)nc(SCC(=O)N(C)C1CCS(=O)(=O)C1)n2CC (configuration not stated) -16.5%
COc1ccc(OC)c(S(=O)(=O)N2CCCC2C(=O)NC(C)c2ccccc2)c1 (configuration not stated) -2.95%
CC(C)CCN1NC2(CCCC(C)C2)NC1=S (configuration not stated) -4.98%
N#C/C(=C\c1ccc2c(c1)OCCO2)C(=O)Nc1nccs1 -22.5%
Cc1cc(NC(=O)c2ccc(C)c(C)c2)no1 -1.84%
COc1ccc(-c2cn3nc(N4CCCC(C(=O)Nc5cc(C)cc(C)c5)C4)sc3n2)cc1 (configuration not stated) -17.8%
COC(=O)c1ccc(OCC2c3cc(OC)c(OC)cc3CCN2C(=O)Cc2ccccc2)cc1 (configuration not stated) -34.9%
CN(CC(=O)Nc1ccc(F)c(F)c1F)C(=O)C1COc2ccccc2O1 (configuration not stated) -13.2%
CCNc1nc(N2CCOCC2)nc(N(c2ccccc2)c2ccccc2)n1 -23.7%
CC(=O)c1cc(CN2CCC(N3CCC(C(=O)N4CCCC4)CC3)CC2)cs1 3.76% [at 11.4 µM]
CCOC(=O)c1sc(NC(=O)c2cc3nc(-c4ccccc4)cc(C(F)(F)F)n3n2)c(C(=O)OCC)c1C -3.73%
CC(C)CCN1C(=O)c2ccc(C(=O)Nc3ccccn3)cc2C1=O -10.4%
